Experiments:
Details in all cases: 72 h
[1] = test system: Caco-2; experiment: cell viability relative to DMSO; higher = less toxic
[2] = test system: Calu-3; experiment: as above
[3] = test system: HepG2; experiment: as above
[4] = test system: U2OS; experiment: as above
[5] = test system: Vero E6; experiment: as above
[6] = test system: Caco-2; experiment: relative viability EC50 (midpoint between 100% and the lowest measured viability); higher = less toxic
[7] = test system: Calu-3; experiment: as above
[8] = test system: HepG2; experiment: as above
[9] = test system: U2OS; experiment: as above
[10] = test system: Vero E6; experiment: as above
[11] = test system: Caco-2; experiment: drug sensitivity score (DSS) for viability; higher = more toxic; extreme values may be limits of the assay
[12] = test system: Calu-3; experiment: as above
[13] = test system: HepG2; experiment: as above
[14] = test system: U2OS; experiment: as above
[15] = test system: Vero E6; experiment: as above

COC(=O)[C@H](CCCNC(=N)N)NS(=O)(=O)c1ccc(C)cc1 [TAME]
cell viability [%]
Details | [1] | [2] | [3] | [4] | [5]
1 nM | 94.4 | 92.7 | 102 | 94.9 | 95.9
10 nM | 108 | 98 | 97.8 | 97.7 | 101
100 nM | 104 | 89.1 | 106 | 97 | 98.7
1000 nM | 103 | 94.9 | 98.3 | 106 | 98.1
10000 nM | 100 | 103 | 113 | 103 | 108

Details | drug sensitivity score | relative viability EC50 [µM]
[6] | – | > 10
[7] | – | > 10
[8] | – | > 10
[9] | – | > 10
[10] | – | > 10
[11] | 0 | –
[12] | 0 | –
[13] | 0 | –
[14] | 0 | –
[15] | 0 | –
